{"source": "the supplement of paper PMC4604168 (melanoma cell lines)", "note": "The list shows a part of the results. Many values rest on one well or one pass, so single values are uncertain.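 Note: cells treated in 1,536-well plates, then fixed and DAPI-stained, with nuclei counted from automated high-throughput microscope images.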", "data": [{"tested_on": "IPC-298", "assay": "cell count relative to DMSO control; melanoma cells; higher = more viable cells", "details": "library dose: standard library concentration; 72 h", "units": {"cell count": "%"}, "values": [{"smiles": "Cn1cnc2c(F)c(Nc3ccc(Br)cc3Cl)c(C(=O)NOCCO)cc21", "note": "[selumetinib] + O=C(O)c1ccc(-c2c[nH]c3ncc(-c4ccccc4)cc23)cc1C1CCCC1 [GSK650394] (first compound 0.075 µM, partner dose 0.8 µM)", "cell count": 69.8}, {"smiles": "COc1cc([C@@H]2c3cc4c(cc3[C@@H](O[C@@H]3O[C@@H]5CO[C@@H](C)O[C@H]5[C@H](O)[C@H]3O)[C@H]3COC(=O)[C@H]23)OCO4)cc(OC)c1O", "note": "[etoposide] + COc1ccc2c(c1)CCC1C2CCC2(C)C(NCCCCCCN3C(=O)C=CC3=O)CCC12 [U73122] (first compound 0.1 µM, partner dose 2 µM)", "cell count": 85.3}, {"smiles": "COc1cc([C@@H]2c3cc4c(cc3[C@@H](O[C@@H]3O[C@@H]5CO[C@@H](C)O[C@H]5[C@H](O)[C@H]3O)[C@H]3COC(=O)[C@H]23)OCO4)cc(OC)c1O", "note": "[etoposide] + COc1ccc(-c2ccc3c(N4CCOCC4)nc(N4C[C@@H](C)O[C@@H](C)C4)nc3n2)cc1CO [KU0063794] (first compound 0.1 µM, partner dose 0.1 µM)", "cell count": 57.1}, {"smiles": "COc1cc([C@@H]2c3cc4c(cc3[C@@H](O[C@@H]3O[C@@H]5CO[C@@H](C)O[C@H]5[C@H](O)[C@H]3O)[C@H]3COC(=O)[C@H]23)OCO4)cc(OC)c1O", "note": "[etoposide] + Cc1cc(N2CCOCC2)cc2[nH]c(-c3c(NC[C@@H](O)c4cccc(Cl)c4)cc[nH]c3=O)nc12 [BMS536924] (first compound 0.1 µM, partner dose 1 µM)", "cell count": 82.8}, {"smiles": "Cn1cnc2c(F)c(Nc3ccc(Br)cc3Cl)c(C(=O)NOCCO)cc21", "note": "[selumetinib] + CN1CCN(c2ccc3nc(-c4c(N)c5c(F)cccc5[nH]c4=O)[nH]c3c2)CC1 [Dovitinib] (first compound 0.075 µM, partner dose 0.5 µM)", "cell count": 31.5}, {"smiles": "C[C@]1(O)C[C@@H](c2nc(-c3ccc4ccc(-c5ccccc5)nc4c3)c3c(N)nccn32)C1", "note": "+ O=S(=O)(c1ccccc1)N(CC(F)(F)F)c1ccc(C(O)(C(F)(F)F)C(F)(F)F)cc1 [T0901317] (first compound 2 µM, partner dose 7 µM)", "cell count": 91.2}]}]}
